Experimental data as given in patent US20260216242A1 (ALMAC DISCOVERY, published 2026).

T1: Human ALPL (leucine zipper) (human)
T1 construct: Soluble human ALPL fused to a disulphide stabilised leucine zipper and a His tag; also called hALPL; TNAP
T1 chain: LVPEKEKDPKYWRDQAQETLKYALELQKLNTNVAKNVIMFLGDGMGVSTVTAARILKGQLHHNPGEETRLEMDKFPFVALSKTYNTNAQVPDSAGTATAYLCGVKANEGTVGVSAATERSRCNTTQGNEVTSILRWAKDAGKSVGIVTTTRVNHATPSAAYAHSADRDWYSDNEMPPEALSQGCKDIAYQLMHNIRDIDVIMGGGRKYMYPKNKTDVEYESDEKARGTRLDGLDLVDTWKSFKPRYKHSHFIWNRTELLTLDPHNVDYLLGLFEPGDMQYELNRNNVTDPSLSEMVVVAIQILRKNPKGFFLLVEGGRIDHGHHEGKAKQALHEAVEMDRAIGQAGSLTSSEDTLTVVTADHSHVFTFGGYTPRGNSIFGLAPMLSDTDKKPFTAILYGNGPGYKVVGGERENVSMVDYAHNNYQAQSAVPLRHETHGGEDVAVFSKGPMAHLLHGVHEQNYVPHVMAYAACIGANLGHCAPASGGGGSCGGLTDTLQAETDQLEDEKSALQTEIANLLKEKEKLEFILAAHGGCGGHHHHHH

T2: Human ALPPL2 (leucine zipper) (human)
T2 construct: Soluble human ALPPL2 fused to a disulphide stabilised leucine zipper and a His tag; The whole entry is the construct; also called hALPPL2; ALPG
T2 chain: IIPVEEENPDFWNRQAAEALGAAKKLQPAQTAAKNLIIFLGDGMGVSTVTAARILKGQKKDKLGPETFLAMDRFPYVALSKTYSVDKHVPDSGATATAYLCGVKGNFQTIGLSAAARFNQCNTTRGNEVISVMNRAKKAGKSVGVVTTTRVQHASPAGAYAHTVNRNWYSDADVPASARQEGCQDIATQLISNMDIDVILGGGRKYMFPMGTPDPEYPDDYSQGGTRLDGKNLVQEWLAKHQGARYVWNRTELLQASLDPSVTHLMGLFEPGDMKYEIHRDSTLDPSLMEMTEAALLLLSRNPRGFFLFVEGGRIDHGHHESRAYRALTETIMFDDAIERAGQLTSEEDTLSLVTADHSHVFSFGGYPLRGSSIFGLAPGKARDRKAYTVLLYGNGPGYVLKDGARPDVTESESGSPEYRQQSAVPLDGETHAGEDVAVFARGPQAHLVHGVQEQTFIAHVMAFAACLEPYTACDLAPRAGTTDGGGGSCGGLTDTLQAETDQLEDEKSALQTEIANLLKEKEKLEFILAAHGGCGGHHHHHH

T3: Human ALPP (leucine zipper) (human)
T3 construct: Soluble human ALPP fused to a disulphide stabilised leucine zipper and a His tag; The whole entry is the construct; also called hALPP; PLAP
T3 chain: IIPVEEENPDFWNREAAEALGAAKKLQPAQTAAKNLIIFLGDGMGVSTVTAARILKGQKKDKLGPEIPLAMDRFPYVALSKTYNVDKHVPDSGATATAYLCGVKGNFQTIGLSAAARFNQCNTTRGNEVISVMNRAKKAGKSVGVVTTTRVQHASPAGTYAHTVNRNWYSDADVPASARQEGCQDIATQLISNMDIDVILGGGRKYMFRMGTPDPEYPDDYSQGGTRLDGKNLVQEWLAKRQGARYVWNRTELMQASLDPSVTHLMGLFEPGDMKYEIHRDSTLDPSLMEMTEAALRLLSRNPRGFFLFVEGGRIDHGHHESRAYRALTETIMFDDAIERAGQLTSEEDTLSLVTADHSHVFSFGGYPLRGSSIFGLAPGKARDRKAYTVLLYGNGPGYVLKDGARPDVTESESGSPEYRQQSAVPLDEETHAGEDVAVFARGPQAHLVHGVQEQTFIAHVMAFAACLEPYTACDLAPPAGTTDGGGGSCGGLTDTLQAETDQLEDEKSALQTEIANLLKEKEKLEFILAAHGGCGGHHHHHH

T4: human ALPI expressed on CHO cells (CHO-ALPI) (human, UniProt P09923 20-503)
T4 sequence (looked up): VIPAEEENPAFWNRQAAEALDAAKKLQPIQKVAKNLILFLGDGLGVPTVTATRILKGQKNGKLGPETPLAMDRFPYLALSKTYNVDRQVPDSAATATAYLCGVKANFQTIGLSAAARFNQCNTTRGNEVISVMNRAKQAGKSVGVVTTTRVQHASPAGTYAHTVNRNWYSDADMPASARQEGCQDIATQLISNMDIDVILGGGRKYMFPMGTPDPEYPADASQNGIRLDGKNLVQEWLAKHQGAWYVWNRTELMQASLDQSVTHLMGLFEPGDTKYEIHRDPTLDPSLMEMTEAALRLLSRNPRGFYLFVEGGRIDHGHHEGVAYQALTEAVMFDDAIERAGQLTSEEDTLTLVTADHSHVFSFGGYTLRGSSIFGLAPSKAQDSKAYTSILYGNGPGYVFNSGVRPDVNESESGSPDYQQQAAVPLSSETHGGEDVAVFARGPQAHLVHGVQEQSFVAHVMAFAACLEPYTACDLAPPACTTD

T5: human ALPL expressed on CHO cells (CHO-ALPL) (human, UniProt P05186 18-501)
T5 sequence (looked up): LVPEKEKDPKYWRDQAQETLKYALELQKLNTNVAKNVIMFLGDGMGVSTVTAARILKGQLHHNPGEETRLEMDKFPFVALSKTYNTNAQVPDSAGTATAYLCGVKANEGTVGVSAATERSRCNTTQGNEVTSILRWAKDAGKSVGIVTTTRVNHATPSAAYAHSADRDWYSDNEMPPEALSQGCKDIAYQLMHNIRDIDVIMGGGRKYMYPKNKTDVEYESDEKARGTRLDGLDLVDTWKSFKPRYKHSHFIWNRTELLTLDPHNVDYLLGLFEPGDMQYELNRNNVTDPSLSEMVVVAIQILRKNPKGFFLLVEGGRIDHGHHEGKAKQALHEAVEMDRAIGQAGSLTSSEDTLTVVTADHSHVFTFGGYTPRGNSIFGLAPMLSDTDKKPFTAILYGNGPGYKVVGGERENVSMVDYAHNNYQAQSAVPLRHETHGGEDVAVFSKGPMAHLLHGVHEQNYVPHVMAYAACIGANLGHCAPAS


What was measured:
[1] = molecular target: T1, Human ALPL (leucine zipper); experiment: BLI
Method: (§1) Binding kinetics were determined using the Biolayer Interferometry (BLI) Octet K2 or R4 system (Sartorius). […] For KD apparent measurements, the ALPP proteins were immobilised in sodium acetate pH5 buffer to AR2G sensors using amine coupling. To measure 1:1 interactions, AHC biosensors were used to immobilise Fc-fused proteins. All assays were conducted in HBS-EP with a plate temperature of 25° C. Ka (M⁻¹s⁻¹), Kd (s⁻¹) and KD (nM) values were determined using Octet Data Analysis High Throughput software (Sartorius) for Biolayer Interferometry.

[2] = molecular target: T2, Human ALPPL2 (leucine zipper); experiment: BLI, KD 1:1 (Fc fusion captured on AHC sensor)
Method: as §1

[3] = molecular target: T3, Human ALPP (leucine zipper); experiment: BLI, KD 1:1 (Fc fusion captured on AHC sensor)
Method: as §1

[4] = molecular target: T2, Human ALPPL2 (leucine zipper); experiment: BLI, KD app (antigen immobilised on AR2G sensor)
Method: as §1

[5] = molecular target: T3, Human ALPP (leucine zipper); experiment: BLI, KD app (antigen immobilised on AR2G sensor)
Method: as §1

[6] = molecular target: human ALPPL2 expressed on CHO cells (CHO-ALPPL2) (human, UniProt P10696 20-503); experiment: cell-based or functional assay
[7] = molecular target: T4, human ALPI expressed on CHO cells …; experiment: cell-based or functional assay
[8] = molecular target: human ALPP expressed on CHO cells (CHO-ALPP) (human, UniProt P05187 23-506); experiment: cell-based or functional assay
[9] = molecular target: T5, human ALPL expressed on CHO cells …; experiment: cell-based or functional assay
[10] = molecular target: human ALPPL2 (alkaline phosphatase, germ cell type) stably expressed on the surface of CHO cells (human, UniProt P10696 20-503); experiment: cell-based or functional assay
[11] = molecular target: human ALPP (alkaline phosphatase, placental type) stably expressed on the surface of CHO cells (human, UniProt P05187 23-506); experiment: cell-based or functional assay

| Binder | cell killing IC50 @ 96 h, CHO-ALPPL2 cells (Cell Titre Glo) [6] [nM] | cell killing IC50 @ 96 h, CHO-ALPI cells (Cell Titre Glo) [7] [nM] | cell killing IC50 @ 96 h, CHO-ALPP cells (Cell Titre Glo) [8] [nM] | cell killing IC50 @ 96 h, CHO-ALPL cells (Cell Titre Glo) [9] [nM] | IC50 @ 96 h (nM), cell-killing of CHO-ALPPL2 cells (Cell Titre Glo) [10] [nM] | IC50 @ 96 h (nM), cell-killing of CHO-ALPP cells (Cell Titre Glo) [11] [nM] | also measured |
| --- | --- | --- | --- | --- | --- | --- | --- |
| D10 A06-hFc (S239C), [G4S]3 linkers (Fc fusion, Biparatopic knobs-into-holes heterodimer; also called #605) chain 1: QVQLVESGGGLVQPGGSLRLSCAASGSIFSVNTMGWYRQAPGKQRDLVAVATSGGTIHYADSVKGRFTISRDNAKNTVYLQMNSLKPEDTAVYYCNLVVPYGMIAGDHDYWGQGTKVTVSSGGGGSGGGGSGGGGS[human IgG1 Fc with C220S S239C T366Y (EU numbers) not spelt out] chain 2: QVHLVESGGGLVQAGGSLRLSCAASGRTFLSMGWFRQAPGKEREFVAAISWTGGSTGYADSVKGRFTISRESDKETMYLQMNSLKPEDTAVYYCAARGDVYYGGDDATRYKYWGQGTQVTVSSGGGGSGGGGSGGGGS[human IgG1 Fc with C220S S239C Y407T (EU numbers) not spelt out] | – | – | – | – | – | – | binding result [1]: no binding; Kd [2]: < 0.01 nM; koff [2]: < 1e-07 s⁻¹; kon [2]: 505000 M⁻¹ s⁻¹; Kd [3]: < 0.01 nM; koff [3]: < 1e-07 s⁻¹; kon [3]: 443000 M⁻¹ s⁻¹; Kd [4]: 1.22 nM; koff [4]: 0.000658 s⁻¹; kon [4]: 540000 M⁻¹ s⁻¹; Kd [5]: < 0.01 nM; koff [5]: < 1e-07 s⁻¹; kon [5]: 284000 M⁻¹ s⁻¹ |
| D10 linker Cys-hFc-vcPAB-MMAE (S442C) (Fc fusion, MC-vc-PAB-MMAE on the linker Cys and on Cys 442 (S442C, EU numbering); DAR 4.1) QVQLVESGGGLVQPGGSLRLSCAASGSIFSVNTMGWYRQAPGKQRDLVAVATSGGTIHYADSVKGRFTISRDNAKNTVYLQMNSLKPEDTAVYYCNLVVPYGMIAGDHDYWGQGTKVTVSSGCGGSGGGGSGGGGS[human IgG1 Fc with changes not spelt out] | 52.2 | > 664 | 36.9 | > 664 | – | – | – |
| D10-hFc (S239C)-MA-PEG4-vc-PAB-EDA-PNU159682 (Fc fusion, MA-PEG4-vc-PAB-EDA-PNU159682 on Cys 239 (S239C, EU numbering); DAR 2) QVQLVESGGGLVQPGGSLRLSCAASGSIFSVNTMGWYRQAPGKQRDLVAVATSGGTIHYADSVKGRFTISRDNAKNTVYLQMNSLKPEDTAVYYCNLVVPYGMIAGDHDYWGQGTKVTVSSGGGGSGGGGSGGGGS[human IgG1 Fc with changes not spelt out] | 79.9 | 798 | 6.2 | > 1000 | – | – | – |
| D10 E06-hFc (S239C F405L/K409R) conjugated to MC-vc-PAB-MMAE (Fc fusion, DAR 2, MC-vc-PAB-MMAE on Cys 239 (S239C, EU numbering)) chain 1: QVQLVESGGGLVQPGGSLRLSCAASGSIFSVNTMGWYRQAPGKQRDLVAVATSGGTIHYADSVKGRFTISRDNAKNTVYLQMNSLKPEDTAVYYCNLVVPYGMIAGDHDYWGQGTKVTVSSGGGGSGGGGSGGGGS[human IgG1 Fc with changes not spelt out] chain 2: QVHLVESGGGLVQAGGSLRLSCAASRRSFSEYAMGWFRQAPGKEREFVAAIGWSGVIEYADSVKGRFTISRDNAKDTVYLQMNSLKPEDTAVYYCAAGLGIRVVSQTPAYWGQGTQVTVSSGGGGSGGGGSGGGGS[human IgG1 Fc with changes not spelt out] | – | – | – | – | 46.9 | 35 | – |
| D10 A06-hFc (S239C F405L/K409R) conjugated to MC-vc-PAB-MMAE (Fc fusion, DAR 2.8, MC-vc-PAB-MMAE on Cys 239 (S239C, EU numbering)) chain 1: QVQLVESGGGLVQPGGSLRLSCAASGSIFSVNTMGWYRQAPGKQRDLVAVATSGGTIHYADSVKGRFTISRDNAKNTVYLQMNSLKPEDTAVYYCNLVVPYGMIAGDHDYWGQGTKVTVSSGGGGSGGGGSGGGGS[human IgG1 Fc with changes not spelt out] chain 2: QVHLVESGGGLVQAGGSLRLSCAASGRTFLSMGWFRQAPGKEREFVAAISWTGGSTGYADSVKGRFTISRESDKETMYLQMNSLKPEDTAVYYCAARGDVYYGGDDATRYKYWGQGTQVTVSSGGGGSGGGGSGGGGS[human IgG1 Fc with changes not spelt out] | – | – | – | – | 626 | 18 | – |
| A06-hFc (S239C)-MA-PEG4-vc-PAB-EDA-PNU159682 (Fc fusion, MA-PEG4-vc-PAB-EDA-PNU159682 on Cys 239 (S239C, EU numbering); DAR 1.93) QVHLVESGGGLVQAGGSLRLSCAASGRTFLSMGWFRQAPGKEREFVAAISWTGGSTGYADSVKGRFTISRESDKETMYLQMNSLKPEDTAVYYCAARGDVYYGGDDATRYKYWGQGTQVTVSSGGGGSGGGGSGGGGS[human IgG1 Fc with changes not spelt out] | 148 | 883 | 64.1 | > 1000 | – | – | – |
